We go through 4 compounds from patent publication US10668093B2, “Method for prolonging the over survival of a cancer patient” (National Yang-Ming University, priority 2015, dated 2020).

Molecules are shown by their SMILES.

Experiment [1] deals with advanced hepatocellular carcinoma. The following applies: Asia-Pacific patients with advanced HCC, sorafenib arm; cited from earlier work.
Experiment [2] concerns Hep3B. In words: 50% cell death in three-day growth. The class given is cell-based. The following applies: Homo sapiens, 72 h; three-day growth of Hep3B; read-out: final concentration that led to 50% cell death. How it is done:
(§1) Valproic acid (VPA) (Sigma-Aldrich, MO) at 10^−2 M in dimethyl sulfoxide (DMSO), was stocked at −20° C. Fresh dilution of chemicals were prepared before the experiments.
(§2) CTV-1, Molt-3, THP-1, MCR-5, J5, LPC and Hep3B cell lines were obtained from the American Type Culture Collection (Rockville, Md.). CTV-1 and Molt-3 and were grown in RPMI 1640 medium supplemented with 10% fetal bovine serum (FBS); THP-1, MCR5, J5, LPC and Hep3B were grown in Dulbecco's modified Eagle's medium (DMEM, Gibco, Grand Island, N.Y.) supplemented with 10% FBS. All were grown at 37° C. in a humidified atmosphere containing 5% CO2.

In experiment [3] the test system is J5. Kind of experiment: 50% cell death in three-day growth. It is filed as cell-based. The following applies: 72 h; three-day growth of J5; read-out: final concentration that led to 50% cell death. The method, then: as §1, §2
Experiment [4] concerns PLC. In words: 50% cell death in three-day growth. The class given is cell-based. The following applies: 72 h; three-day growth of PLC; read-out: final concentration that led to 50% cell death. How it is done: as §1, §2
The subject of experiment [5] is CTV-1. Kind of experiment: 50% cell death in three-day growth. To be noted: Homo sapiens, 72 h; three-day growth of CTV-1; read-out: final concentration that led to 50% cell death. It is filed as cell-based. How it is done:
as §1, §2

The subject of experiment [6] is caspase 8 and caspase 9. Kind of experiment: Western blot of caspase cleavage in CTV-1 cells. It is filed as cell-based. To be noted: CTV-1, 16 hrs after treatment at IC50s. From the text: The apoptosis was evidenced with the increased M2 fractions by TUNEL assay (A), and the increased cleavage of caspase 8 and/or 9 by western blot (B).
Experiment [7] deals with CtIP. Kind of experiment: Subcellular localization of CtIP by confocal microscopy in CTV-1 cells. The class given is cell-based. To be noted: 12-hour treatment. From the text:
(§3) Cells treated for the indicated time were fixed and doubly immunofluorescence-stained for γH2X and CtIP with mouse anti-γH2A.X (1:500) (Ser139)(05-636, Merk Millipore) and rabbit anti-CtIP (1:500) (Sc-22838, Santa Cruz) antibodies, coupled with donkey fluorescein-conjugated anti-mouse and TRITC-conjugated anti-rabbit antibodies (Jackson ImmunoResearch, West Grove, Pa.), respectively. The cells doubly labeled were then visualized using a Leica TCS-SP2 confocal scanning microscope equipped with an acousto-optical tunable filter and a Plan-Apochromat oil-immersion objective with a 63×/1.32 numeric aperture (Leica Microsystems, Bensheim, Germany). Images were acquired with Leica TCSNT software.

Experiment [8] relates to CtIP. Kind of experiment: Subcellular localization of CtIP by confocal microscopy in normal fibroblasts. The class given is cell-based.
Source text: CTV-1 was segregated with T acute lymphoblastic leukemia and THP-1, with acute myeloid leukemia, according to their expression profiles (Andersson, 2005); Molt-3 is a T acute lymphoblastic leukemia and MRC-5, normal fetal lung fibroblasts cell line (ATCC CCL 171). J5, LPC and Hep3B are HCC cell lines.
as §3

For experiment [9], the system named is γH2X. In words: γH2X stain by confocal microscopy. The class given is cell-based. The following applies: 12-hour treatment.
Source text: as §3

Experiment [10] concerns CTV-1. In words: Cell cycle distribution by BrdU assay. To be noted: CTV-1, 12-hour treatment. (In general: Dividing cells build labelled thymidine or BrdU into new DNA.)

Regarding `CNC(=O)c1cc(Oc2ccc(NC(=O)Nc3ccc(Cl)c(C(F)(F)F)c3)cc2)ccn1` [sorafenib], the median overall survival in [1] is reported as 6.5 months.

`CCCC(CCC)C(=O)O` [VPA, Valproic acid]: the IC50 was found to be 38.9 µM in [2], 28.7 µM in experiment [3] and 26.7 µM in experiment [4].

`COc1cccc2c1C(=O)c1c(O)c3c(c(O)c1C2=O)C[C@@](O)(C(=O)CO)C[C@@H]3O[C@H]1C[C@H](N)[C@H](O)[C@H](C)O1` [Doxo, Doxorubicin]: the IC50 in [5] was 0.09 µM.

On to `O=C(CCCCCCC(=O)Nc1ccccc1)NO` [SAHA, Suberoylanilide hydroxamic acid], for which the “cleaved fractions of caspase 8 and caspase 9” value in experiment [6] is listed as “increased”. The entries for the “nuclear entry of CtIP” value in experiment [7] and in experiment [8] were “Restrained CtIP from Entering Nuclei” and “not in Normal Fibroblasts”, respectively. Besides, the “DNA break revealed by γH2X stain” value in experiment [9] was “occurred”. Besides, the “effect on cell cycle populations (in words)” value in experiment [10] is on record as “decreased CTV-1 cells in G0G1 cycle arrest with increase in S phase”.
